Measured values from the BET-seq Pho4 binding data (Le et al. 2018).
The other results are listed elsewhere or left out. These are noisy estimates, calculated here from bound and input reads.

Molecular target: T1, Pho4 (S. cerevisiae) (UniProt P07270)
T1 sequence: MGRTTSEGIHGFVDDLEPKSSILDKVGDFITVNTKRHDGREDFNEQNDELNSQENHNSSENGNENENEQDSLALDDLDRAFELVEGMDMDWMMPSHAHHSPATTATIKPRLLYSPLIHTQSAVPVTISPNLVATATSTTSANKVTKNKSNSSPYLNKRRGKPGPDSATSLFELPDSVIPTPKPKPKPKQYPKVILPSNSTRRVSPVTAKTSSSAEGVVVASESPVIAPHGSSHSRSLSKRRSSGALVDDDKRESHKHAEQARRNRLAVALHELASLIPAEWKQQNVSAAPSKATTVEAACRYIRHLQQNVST
Assay: relative binding free energy (BET-seq); higher = weaker binding
Conditions: reference: library average

Row | Sequence | relative binding free energy [kcal/mol]
1 | GGTCACACGTGCTGTG | 0.17
2 | TTCAGCACGTGGGATG | -0.25
3 | TGGGGCACGTGTATCG | -0.07
4 | GAGGTCACGTGAATAG | 0.29
5 | GGCGGCACGTGGTATG | -0.09
6 | TAAGGCACGTGTGTGG | -0.07
7 | TCTGTCACGTGTGATA | 0.15
8 | ATTAGCACGTGTTAGG | 0
9 | CTGTTCACGTGAGATG | 0.41
10 | GTGCTCACGTGTATGT | 0.27
11 | GTATCCACGTGGTGGA | -0.06
12 | GCTTGCACGTGTGTGC | -0.04
13 | TCACGCACGTGGGTGT | -0.34
14 | GCGTTCACGTGGTTAT | 0.42
15 | TATTTCACGTGTAGCG | 0.28
16 | TTGATCACGTGAGGCG | 0.31
17 | TATAGCACGTGGGAGC | -0.13
18 | TGGGTCACGTGGAAGG | 0.15
19 | CGGTGCACGTGGTTTT | 0.12
20 | ATTTGCACGTGACTTA | -0.04
21 | AGTGGCACGTGTCAAT | -0.1

Row | Sequence | relative binding free energy [kcal/mol]
22 | TAAAGCACGTGGTAAA | 0.05
23 | AATTTCACGTGAATTG | 0.29
24 | GTGCTCACGTGGAGGT | 0.17
25 | TAGTACACGTGGAGGA | 0.12
26 | TAGGTCACGTGGTATA | 0.12
27 | TTCTTCACGTGGCATT | 0.24
28 | TTGATCACGTGAAGCT | 0.32
29 | AATGGCACGTGTGCAG | -0.12
30 | GGGGTCACGTGATAGG | 0.24
31 | TGTGGCACGTGTCCGT | -0.06
32 | TTATTCACGTGGTGCC | 0.27
33 | GGCGGCACGTGATGGG | 0.03
34 | AGGGTCACGTGGTATC | 0.11
35 | AGAGGCACGTGGTGTC | -0.11
36 | TGAGGCACGTGCTATA | -0.16
37 | AGGTACACGTGCAGTT | 0.06
38 | GGTATCACGTGTGAGT | 0.32
39 | GAAAGCACGTGTGCGT | 0.06
40 | TTCTACACGTGGTTGT | 0.12
41 | GGGGTCACGTGATGAT | 0.21
42 | CGGTGCACGTGGGCTA | -0.07

Row | Sequence | relative binding free energy [kcal/mol]
43 | TGGGCCACGTGAGTTT | 0.23
44 | TTTATCACGTGCGCGG | -0.04
45 | TATTGCACGTGATATT | 0.2
46 | GTGCGCACGTGGTTAT | -0.09
47 | TTGTACACGTGGAGTG | 0.08
48 | CGGAACACGTGTTGTG | -0.05
49 | TTGGACACGTGGTTTG | 0.05
50 | TGAGTCACGTGAAATG | 0.25
51 | TTCAACACGTGAGTGT | 0.2
52 | TATGGCACGTGTTGGG | -0.01
53 | AGGAGCACGTGGTAAG | -0.21
54 | GCGTTCACGTGTTGTT | 0.41
55 | TTTTACACGTGAGTAC | 0.31
56 | CTATGCACGTGGGGCT | -0.14
57 | ATGTACACGTGGGTGC | -0.11
58 | TGTATCACGTGACTGT | 0.24
59 | AGTATCACGTGGCGTA | -0.1
60 | TTATTCACGTGTTATA | 0.09
61 | GTTTACACGTGGATGC | 0.21
62 | CCGGACACGTGGTGGG | 0.01
63 | ATTCTCACGTGGGGCT | 0.06
